# From the supplement of paper PMC3334620
# In all, about 33,000 sequences were measured (“E-score (-0.5 to 0.5)”: median about -0.012, highest 2% from about 0.29 on). This is one part of the list.
# Biological target: T1, Ybr033w (UniProt P38073)
# T1 sequence: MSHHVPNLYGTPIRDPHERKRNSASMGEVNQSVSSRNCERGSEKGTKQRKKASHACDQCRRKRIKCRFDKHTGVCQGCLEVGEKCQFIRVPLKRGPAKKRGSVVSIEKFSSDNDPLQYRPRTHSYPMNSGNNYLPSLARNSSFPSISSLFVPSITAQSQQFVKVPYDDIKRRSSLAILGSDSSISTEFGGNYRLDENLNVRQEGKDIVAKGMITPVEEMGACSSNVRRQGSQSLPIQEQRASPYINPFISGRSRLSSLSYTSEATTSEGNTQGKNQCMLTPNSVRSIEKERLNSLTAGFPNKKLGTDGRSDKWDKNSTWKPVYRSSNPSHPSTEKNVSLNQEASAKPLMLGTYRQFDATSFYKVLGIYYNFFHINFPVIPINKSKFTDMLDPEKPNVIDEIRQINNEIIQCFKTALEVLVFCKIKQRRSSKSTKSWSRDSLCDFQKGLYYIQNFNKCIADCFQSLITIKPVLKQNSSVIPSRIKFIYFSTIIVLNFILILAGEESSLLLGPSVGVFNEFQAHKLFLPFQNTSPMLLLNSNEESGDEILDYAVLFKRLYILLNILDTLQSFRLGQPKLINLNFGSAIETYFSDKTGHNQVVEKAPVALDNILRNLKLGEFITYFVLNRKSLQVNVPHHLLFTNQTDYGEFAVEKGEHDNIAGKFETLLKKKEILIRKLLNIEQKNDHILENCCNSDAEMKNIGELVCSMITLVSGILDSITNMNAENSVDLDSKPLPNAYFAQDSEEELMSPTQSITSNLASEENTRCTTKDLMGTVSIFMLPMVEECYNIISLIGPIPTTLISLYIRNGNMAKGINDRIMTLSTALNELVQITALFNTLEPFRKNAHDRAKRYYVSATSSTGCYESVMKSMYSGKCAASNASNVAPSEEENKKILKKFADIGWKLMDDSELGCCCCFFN
# Assay: PBM E-score (8-mer binding enrichment) (E-score (-0.5 to 0.5)); higher = stronger / more preferred TF binding; most listed sequences are background and not binding sites
# Conditions: protein concentration: 200 nM; construct: GST-full length
# Outline: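 The E-score, a modified Wilcoxon-Mann-Whitney statistic, was computed by the Universal PBM Analysis Suite for every ungapped eight-base word pooled with its reverse complement. Scans behind it were normalised with masliner after bound GST-tagged yeast transcription factors were detected with fluorescent anti-GST. The proteins, at about 100-200 nM, had been applied to universal all-10-mer Agilent arrays made double-stranded by primer extension.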
row,Sequence,PBM E-score
1,AACCTCTT,0.122
2,ATATCGTC,0.033
3,GCAAATCA,-0.116
4,CAAAACTA,0.217
5,AATCCTCA,0.117
6,AAGCTGCC,-0.303
7,CAACCGTA,-0.239
8,AAATAGCG,0.0616
9,GGATCGAA,-0.0107
10,CGCTATCA,-0.0322
11,GACGCACC,-0.15
12,ACACCTTG,-0.0348
13,AACTCCCA,-0.0757
14,AGGCCTAA,-0.00615
15,ATAATATG,0.273
16,CCGTTTTC,0.147
17,CCCCTGTC,-0.343
18,ACCTTGTA,0.202
19,GTCGGTGA,-0.133
20,GATCCCTA,-0.0658
21,CACGAAAA,0.127
22,CAATGTAC,-0.103
23,GGATCAAC,0.369
24,GATGACTA,-0.023
25,ATACTAGC,0.0225

row,Sequence,PBM E-score
1,AGCGGACT,-0.242
2,AACGTTAA,0.212
3,ATTAGGAA,0.286
4,GATTTCCC,0.0546
5,CGGCTAAC,0.0375
6,ATCCGGAC,-0.0654
7,GATAGAAC,0.172
8,ATTGCTGA,0.0669
9,AGATCTTC,0.137
10,ATTGGTTG,0.0397
11,AAGAACGC,0.0624
12,CTCGAGCC,-0.082
13,CCCGGGGA,-0.287
14,ATAAAAAT,0.193
15,CTGTAATA,0.0757
16,ATTTACAC,0.00495
17,CCCCATTA,-0.256
18,GAATGTAC,-0.0862
19,CCGGCCAG,-0.112
20,TAACACAA,0.202
21,AGACAAGA,0.0778
22,AACGTCCT,0.00378
23,AATTGCGA,-0.0541
24,CGGTAGAC,-0.0176
25,AATATCAA,0.233

row,Sequence,PBM E-score
1,ACAGGTCC,-0.198
2,AGCTTGGA,-0.101
3,GAAAGTTC,-0.0203
4,GAAGATTC,0.165
5,AAGAGTTC,0.0919
6,GATCGAAA,0.208
7,TCCTTCGA,-0.0872
8,ATAAGGTA,0.0435
9,GTACTCTA,-0.0777
10,GCTGCCGA,-0.159
11,CCGCCTAA,-0.086
12,GAACACTC,-0.0265
13,CTTTCGCC,-0.0766
14,AGTAGGTA,0.0324
15,ACAACGCT,-0.178
16,CAATCTAC,0.0081
17,GGTGCGAC,-0.234
18,CTGAGTAC,-0.0858
19,GCTCGGCA,-0.0888
20,CGTCTAAA,0.0854
21,CCGGCATA,-0.0709
22,AGTTCAAA,0.165
23,AACCCTAT,0.0771
24,AGGCCTAG,-0.193
25,CAGAATAA,0.119

row,Sequence,PBM E-score
1,CTGCAGAC,-0.256
2,ATAAATAG,0.254
3,GCATTATA,0.0824
4,CCAGATAC,-0.0567
5,GCTCAATA,0.0148
6,TCCTGTCA,0.0549
7,CTAGGAAG,0.00811
8,AAGTTCGC,0.0802
9,ACTGCCCC,-0.301
10,GGAATGAA,0.265
11,AAGTACAT,0.0939
12,TCAGTAGA,-0.0175
13,CTTTAGAC,0.0823
14,GTCTATTA,-0.0198
15,CACCCGTG,-0.162
16,CGTGGTTC,-0.0471
17,AATTCCCC,-0.0668
18,CGAACTCG,0.0597
19,AGGCGATG,-0.109
20,GAGAGGAC,-0.141
21,CCTCAGCA,-0.236
22,ACTCGCAG,0.0146
23,TTATAAAA,0.222
24,GAACTGTC,-0.124
25,TCTACTCA,0.086

row,Sequence,PBM E-score
1,AACTCCCC,0.0433
2,CCTATTCA,-0.114
3,CACTTGGC,-0.194
4,CCGTAATC,0.00305
5,CCGTCGTA,-0.167
6,CCTTAGAG,-0.367
7,GTATGGAC,0.0471
8,GGATATCA,-0.07
9,GCGCACGA,-0.00742
10,AAGACCCT,-0.0532
11,AAGGACCC,-0.358
12,ACGAGATA,-0.0352
13,GAAAATCC,0.308
14,AACAATGC,0.156
15,TCTCCACA,0.147
16,CACTGCGG,0.0493
17,CAGAGGCC,-0.356
18,GACTGATA,-0.144
19,CGGTACAC,-0.243
20,ACTAACGC,0.0783
21,AACAAGAC,0.183
22,AGCTCCGC,-0.0318
23,ACTGAACC,0.00627
24,CTGATGTC,0.139
25,GGGCATCA,-0.147

row,Sequence,PBM E-score
1,AACGGCGA,0.098
2,AATATCTG,0.276
3,TAGTTCCA,0.243
4,CACTGGGA,-0.0293
5,AGGGGGGA,-0.314
6,AATGGTGC,0.00744
7,ATTCTTCA,0.129
8,AAGGGCCT,-0.318
9,ATTTAACG,0.259
10,AATGTTGG,0.0504
11,GAAACCGC,0.0982
12,CGTAGCCC,-0.213
13,CCAATGCC,-0.253
14,ACGTATCT,-0.13
15,GCACTACA,-0.187
16,ATCGATTA,0.246
17,ATGACACC,-0.0427
18,ACTCCTAG,-0.174
19,GGGGCTGA,-0.187
20,TCGGAACA,0.387
21,AATGGACG,0.162
22,GAGCGTCC,-0.122
23,AGAGTCGC,-0.0162
24,GGATCTTA,0.0507
25,ATCATAAC,0.269

row,Sequence,PBM E-score
1,CCAGTAGA,-0.0815
2,CTAGAAGC,-0.117
3,AGCATTCG,-0.129
4,ACCTTAGA,-0.0616
5,AGAAGCTG,0.08
6,AGGATGCC,-0.102
7,ACAGATTA,-0.0636
8,AGTAGAAC,-0.0221
9,AATTAGTG,0.16
10,CCTGGCAC,-0.226
11,CTATTAAA,0.196
12,TCGTTCAA,-0.079
13,GAATCCCA,0.0577
14,CAGGGCCG,-0.182
15,AGTATAAC,-0.00437
16,CGGAGTCA,0.0128
17,CCCGGCTA,-0.207
18,GGTTAACA,0.158
19,CAACCCTC,-0.13
20,ATTGCTGC,0.0139
21,ATCTTAAC,0.154
22,CGCGCGGC,-0.0452
23,CAAAAAGC,0.0408
24,AGGTTTAG,0.0288
25,AACAATTC,0.205

row,Sequence,PBM E-score
1,ATTGTCCA,0.0132
2,CAGGTCTC,-0.204
3,TATCCCGA,0.0443
4,CCGCCGCC,-0.22
5,AATTGGAG,0.0437
6,GCAAGCAA,0.0036
7,CAAATTTA,0.237
8,CATGCGAC,0.0545
9,GAGCACAA,-0.0027
10,ACTCGTCC,-0.052
11,GCACTGGC,-0.222
12,AACGGTAG,-0.0285
13,ATGCTTAC,-0.137
14,GATCGTGC,-0.0603
15,CTTCGAAG,-0.00431
16,CACCAGAC,-0.0475
17,GAAAAGCA,-0.0682
18,AGTTTCAT,0.188
19,CCCCTACA,-0.363
20,ACGCAAAA,0.11
21,GCAGCATA,-0.0281
22,CCACCGCA,0.0272
23,TACATTCA,0.173
24,CCCGCGCA,0.0242
25,TGACGACA,0.0666

row,Sequence,PBM E-score
1,GGTTTTAC,-0.0499
2,CCTTCCGA,-0.0443
3,TACAGACA,0.173
4,AAGGAAGT,0.0991
5,ATCTTGTG,0.0678
6,CCCCGGCC,-0.396
7,CATAACCG,-0.168
8,CGCCTCGA,-0.0514
9,ATCCTCAG,0.0112
10,AACAAAGC,0.276
11,ACGCGAGG,-0.0988
12,AAGCGGTA,-0.00899
13,CCTCTATC,-0.04
14,CTCATCAG,0.0236
15,GCTTCACC,-0.155
16,TCTCCCAA,-0.0885
17,ATGTTTAG,0.149
18,AGGATTTA,0.228
19,AGGACCGA,0.0449
